Assay results from patent US20230250147A1 (Sanofi, published 2023).

T1: Mouse GLP-1R (mouse, UniProt O35659 22-463)
T1 sequence (looked up): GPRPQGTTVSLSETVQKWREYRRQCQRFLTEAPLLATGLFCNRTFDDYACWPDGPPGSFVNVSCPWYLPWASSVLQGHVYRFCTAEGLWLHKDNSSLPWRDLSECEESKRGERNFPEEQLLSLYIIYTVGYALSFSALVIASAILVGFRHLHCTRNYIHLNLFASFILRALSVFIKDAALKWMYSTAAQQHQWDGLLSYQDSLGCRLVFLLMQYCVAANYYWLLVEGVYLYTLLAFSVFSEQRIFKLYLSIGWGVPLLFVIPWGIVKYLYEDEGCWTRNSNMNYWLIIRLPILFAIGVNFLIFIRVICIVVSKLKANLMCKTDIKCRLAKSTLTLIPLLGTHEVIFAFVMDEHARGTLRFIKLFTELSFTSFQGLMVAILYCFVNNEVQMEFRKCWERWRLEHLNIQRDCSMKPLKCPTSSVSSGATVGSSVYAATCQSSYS


Tests used:
Assay in all cases: cell-based or functional assay
[1] = molecular target: human glucagon-like peptide-1 (GLP-1) receptor (human, UniProt P43220 24-463)
Mouse GLP-1R = molecular target: T1, Mouse GLP-1R
Monkey GLP-1R = Monkey GLP-1R (monkey)

Row | Binder | HTRF cAMP EC50 [1] [nM] | HTRF cAMP EC50 (Mouse GLP-1R) [nM] | HTRF cAMP EC50 (Monkey GLP-1R) [nM]
1 | GLP-1RA/FGF21 Fc fusion protein SEQ ID NO: 30 (Fc fusion) HGEGTFTSDLSILLDEEAVREFIEWLLATGPVSGAPPPSGGGGGGGSGGGGSGGGGSA[… human IgG4 Fc with changes …]GGGSGSAHPIPDSSPLLQFGGQVRQRYLYTDDACQTEAHLEIREDGTVGGAADQSPESLLQLKALKPGVIQILGVKTSRFLCQRPDGALYGSLHFDPEACSFRELLLEDGYNVYQSEAHGLPLHLPGCKSPHRDPAPRGPARFLPLPGLPPAPPEPPGILAPQPPDVGSSDPLSMVGSQGRSPSYAS | 0.042 | 0.125 | 0.0733
2 | GLP-1RA/FGF21 Fc fusion protein SEQ ID NO: 42 (Fc fusion) HGEGTFTSDLSIQLDEEAVRLFIEWLLATGPVSGAPPPSGGGGGGGSGGGGSGGGGSA[… human IgG1 Fc with changes …]GGGSGSAHPIPDSSPLLQFGGQVRQRYLYTDDACQTEAHLEIREDGTVGGAADQSPESLLQLKALKPGVIQILGVKTSRFLCQRPDGALYGSLHFDPEACSFRELLLEDGYNVYQSEAHGLPLHLPGCKSPHRDPAPRGPARFLPLPGLPPAPPEPPGILAPQPPDVGSSDPLSMVGSQGRSPSYAS | 0.0181 | 0.0432 | 0.0222
3 | GLP-1RA/FGF21 Fc fusion protein SEQ ID NO: 43 (Fc fusion) HGEGTFTSDLSILLDEEAVRLFIEWLLATGPVSGAPPPSGGGGGGGSGGGGSGGGGSA[… human IgG1 Fc with changes …]GGGSGSAHPIPDSSPLLQFGGQVRQRYLYTDDACQTEAHLEIREDGTVGGAADQSPESLLQLKALKPGVIQILGVKTSRFLCQRPDGALYGSLHFDPEACSFRELLLEDGYNVYQSEAHGLPLHLPGCKSPHRDPAPRGPARFLPLPGLPPAPPEPPGILAPQPPDVGSSDPLSMVGSQGRSPSYAS | 0.0137 | 0.0315 | 0.0174
4 | GLP-1RA/FGF21 Fc fusion protein SEQ ID NO: 226 (Fc fusion) GHGEGTFTSDKSKQLEEEAVRLFIEWLKAGGPKKIRYSPAPAPAEAAAKEAAAKPAPAPA[… human IgG1 Fc with changes …]GGGSGSAHPIPDSSPLLQFGGQVRQRYLYTDDACQTEAHLEIREDGTVGGAADQSPESLLQLKALKPGVIQILGVKTSRFLCQRPDGALYGSLHFDPEACSFRELLLEDGYNVYQSEAHGLPLHLPGCKSPHRDPAPRGPARFLPLPGLPPAPPEPPGILAPQPPDVGSSDPLSMVYPSQGRSPSYAS | 0.0641 | 0.0435 | 
5 | GLP-1RA/FGF21 Fc fusion protein SEQ ID NO: 222 (Fc fusion) GHGEGTFTSDKSKQLEEEAVRLFIEWLKAGGAEAAAKEAAAKEAAAKGGG[… human IgG1 Fc with changes …]GGGSGSAHPIPDSSPLLQFGGQVRQRYLYTDDACQTEAHLEIREDGTVGGAADQSPESLLQLKALKPGVIQILGVKTSRFLCQRPDGALYGSLHFDPEACSFRELLLEDGYNVYQSEAHGLPLHLPGCKSPHRDPAPRGPARFLPLPGLPPAPPEPPGILAPQPPDVGSSDPLSMVYPSQGRSPSYAS | 0.327 | 0.201 | 
6 | GLP-1RA/FGF21 Fc fusion protein SEQ ID NO: 194 (Fc fusion) HGEGTFTSDLSKQLEKELVRLFYEWLINGGHKSGKPPPKGGGGGGGSGGGGSGGGGSA[… human IgG4 Fc with changes …]GGGSGSAHPIPDSSPLLQFGGQVRQRYLYTDDACQTEAHLEIREDGTVGGAADQSPESLLQLKALKPGVIQILGVKTSRFLCQRPDGALYGSLHFDPEACSFRELLLEDGYNVYQSEAHGLPLHLPGCKSPHRDPAPRGPARFLPLPGLPPAPPEPPGILAPQPPDVGSSDPLSMVGSQGRSPSYAS |  | 0.129 | 0.14
7 | GLP-1RA/FGF21 Fc fusion protein SEQ ID NO: 29 (Fc fusion) HGEGTFTSDLSILLDEEAVREFIEWLLATGPVSGAPPPSGGGGGGGSGGGGSGGGGSA[… human IgG4 Fc with changes …]GGGSGSAHPIPDSSPLLQFGGQVRQRYLYTDDACQTEAHLEIREDGTVGGAADQSPESLLQLKALKPGVIQILGVKTSRFLCQRPDGALYGSLHFDPEACSFRELLLEDGYNVYQSEAHGLPLHLCGNKSPHRDPAPRGPARFLPLPGLPPAPPEPPGILAPQPPDVGSSDPLSMVYPSQGRSPSYAS | 0.0377 | 0.113 | 0.064
8 | GLP-1RA/FGF21 Fc fusion protein SEQ ID NO: 31 (Fc fusion) HGEGTFTSDLSILLDEEAVREFIEWLLATGPVSGAPPPSGGGGGGGSGGGGSGGGGSA[… human IgG4 Fc with changes …]GGGSGSAHPIPDSSPLLQFGGQVRQRYLYTDDACQTEAHLEIREDGTVGGAADQSPESLLQLKALKPGVIQILGVKTSRFLCQRPDGALYGSLHFDPEACSFRELLLEDGYNVYQSEAHGLPLHLPGCKSPHRDPAPRGPARFLPLPGLPPAPPEPPGILAPQPPDVGSSDPLSMVYPSQGRSPSYAS | 0.0323 | 0.113 | 0.0628
9 | GLP-1RA/FGF21 Fc fusion protein SEQ ID NO: 45 (Fc fusion) HGEGTFTSDLSIQLDEEAVRLFIEWLEATGPVSGAPPPSGGGGGGGSGGGGSGGGGSA[… human IgG1 Fc with changes …]GGGSGSAHPIPDSSPLLQFGGQVRQRYLYTDDACQTEAHLEIREDGTVGGAADQSPESLLQLKALKPGVIQILGVKTSRFLCQRPDGALYGSLHFDPEACSFRELLLEDGYNVYQSEAHGLPLHLPGCKSPHRDPAPRGPARFLPLPGLPPAPPEPPGILAPQPPDVGSSDPLSMVYPSQGRSPSYAS | 0.0482 | 0.492 | 0.0604
10 | GLP-1RA/FGF21 Fc fusion protein SEQ ID NO: 228 (Fc fusion) GHGEGTFTSDKSKQLEEEAVRLFIEWLKAGGPKKIRYSAEAAAKEAAAKEAAAKEAAKALEAEAAKEAAKEAAKEAAKAGGG[… human IgG1 Fc with changes …]GGGSGSAHPIPDSSPLLQFGGQVRQRYLYTDDACQTEAHLEIREDGTVGGAADQSPESLLQLKALKPGVIQILGVKTSRFLCQRPDGALYGSLHFDPEACSFRELLLEDGYNVYQSEAHGLPLHLPGCKSPHRDPAPRGPARFLPLPGLPPAPPEPPGILAPQPPDVGSSDPLSMVYPSQGRSPSYAS | 0.0492 | 0.0301 | 
11 | GLP-1RA/FGF21 Fc fusion protein SEQ ID NO: 225 (Fc fusion) GHGEGTFTSDKSKQLEEEAVRLFIEWLKAGGPKKIRYSPAPAPAPAPAPAGGG[… human IgG1 Fc with changes …]GGGSGSAHPIPDSSPLLQFGGQVRQRYLYTDDACQTEAHLEIREDGTVGGAADQSPESLLQLKALKPGVIQILGVKTSRFLCQRPDGALYGSLHFDPEACSFRELLLEDGYNVYQSEAHGLPLHLPGCKSPHRDPAPRGPARFLPLPGLPPAPPEPPGILAPQPPDVGSSDPLSMVYPSQGRSPSYAS | 0.128 | 0.0616 | 
12 | GLP-1RA/FGF21 Fc fusion protein SEQ ID NO: 221 (Fc fusion) GHGEGTFTSDKSKQLEEEAVRLFIEWLKAGPAPAPAEAAAKEAAAKPAPAPA[… human IgG1 Fc with changes …]GGGSGSAHPIPDSSPLLQFGGQVRQRYLYTDDACQTEAHLEIREDGTVGGAADQSPESLLQLKALKPGVIQILGVKTSRFLCQRPDGALYGSLHFDPEACSFRELLLEDGYNVYQSEAHGLPLHLPGCKSPHRDPAPRGPARFLPLPGLPPAPPEPPGILAPQPPDVGSSDPLSMVYPSQGRSPSYAS | 0.202 | 0.162 | 
13 | GLP-1RA/FGF21 Fc fusion protein SEQ ID NO: 220 (Fc fusion) GHGEGTFTSDKSKQLEEEAVRLFIEWLKAGGPAPAPAPAPAPAGGG[… human IgG1 Fc with changes …]GGGSGSAHPIPDSSPLLQFGGQVRQRYLYTDDACQTEAHLEIREDGTVGGAADQSPESLLQLKALKPGVIQILGVKTSRFLCQRPDGALYGSLHFDPEACSFRELLLEDGYNVYQSEAHGLPLHLPGCKSPHRDPAPRGPARFLPLPGLPPAPPEPPGILAPQPPDVGSSDPLSMVYPSQGRSPSYAS | 0.0955 | 0.11 | 
14 | GLP-1RA/FGF21 Fc fusion protein SEQ ID NO: 223 (Fc fusion) GHGEGTFTSDKSKQLEEEAVRLFIEWLKAGGAEAAAKEAAAKEAAAKEAAKALEAEAAKEAAKEAAKEAAKAGGG[… human IgG1 Fc with changes …]GGGSGSAHPIPDSSPLLQFGGQVRQRYLYTDDACQTEAHLEIREDGTVGGAADQSPESLLQLKALKPGVIQILGVKTSRFLCQRPDGALYGSLHFDPEACSFRELLLEDGYNVYQSEAHGLPLHLPGCKSPHRDPAPRGPARFLPLPGLPPAPPEPPGILAPQPPDVGSSDPLSMVYPSQGRSPSYAS | 0.0808 | 0.0795 | 
15 | GLP-1RA/FGF21 Fc fusion protein SEQ ID NO: 224 (Fc fusion) GHGEGTFTSDKSKQLEEEAVRLFIEWLKAGGPKKIRYS[… human IgG1 Fc with changes …]GGGSGSAHPIPDSSPLLQFGGQVRQRYLYTDDACQTEAHLEIREDGTVGGAADQSPESLLQLKALKPGVIQILGVKTSRFLCQRPDGALYGSLHFDPEACSFRELLLEDGYNVYQSEAHGLPLHLPGCKSPHRDPAPRGPARFLPLPGLPPAPPEPPGILAPQPPDVGSSDPLSMVYPSQGRSPSYAS | 0.227 | 0.251 | 
16 | GLP-1RA/FGF21 Fc fusion protein SEQ ID NO: 227 (Fc fusion) GHGEGTFTSDKSKQLEEEAVRLFIEWLKAGGPKKIRYSAEAAAKEAAAKEAAAKGGG[… human IgG1 Fc with changes …]GGGSGSAHPIPDSSPLLQFGGQVRQRYLYTDDACQTEAHLEIREDGTVGGAADQSPESLLQLKALKPGVIQILGVKTSRFLCQRPDGALYGSLHFDPEACSFRELLLEDGYNVYQSEAHGLPLHLPGCKSPHRDPAPRGPARFLPLPGLPPAPPEPPGILAPQPPDVGSSDPLSMVYPSQGRSPSYAS | 0.0614 | 0.0408 | 
